Assay results taken from article PMC4336329 (PLoS ONE, 2015).
Hit rate of the full screen: of about 310,000 compounds, about 2,200 (0.71%) showed an effect of 50% or more. The effect is printed as a negative number. The list shows a part of the results.

These compounds were tested against human ether-à-go-go-related gene (hERG) potassium channel (human, UniProt Q12809) (assay: primary screen, population patch clamp on CHO cells stably expressing hERG).
Chain of human ether-à-go-go-related gene (hERG) potassium channel (Q12809 whole entry, looked up): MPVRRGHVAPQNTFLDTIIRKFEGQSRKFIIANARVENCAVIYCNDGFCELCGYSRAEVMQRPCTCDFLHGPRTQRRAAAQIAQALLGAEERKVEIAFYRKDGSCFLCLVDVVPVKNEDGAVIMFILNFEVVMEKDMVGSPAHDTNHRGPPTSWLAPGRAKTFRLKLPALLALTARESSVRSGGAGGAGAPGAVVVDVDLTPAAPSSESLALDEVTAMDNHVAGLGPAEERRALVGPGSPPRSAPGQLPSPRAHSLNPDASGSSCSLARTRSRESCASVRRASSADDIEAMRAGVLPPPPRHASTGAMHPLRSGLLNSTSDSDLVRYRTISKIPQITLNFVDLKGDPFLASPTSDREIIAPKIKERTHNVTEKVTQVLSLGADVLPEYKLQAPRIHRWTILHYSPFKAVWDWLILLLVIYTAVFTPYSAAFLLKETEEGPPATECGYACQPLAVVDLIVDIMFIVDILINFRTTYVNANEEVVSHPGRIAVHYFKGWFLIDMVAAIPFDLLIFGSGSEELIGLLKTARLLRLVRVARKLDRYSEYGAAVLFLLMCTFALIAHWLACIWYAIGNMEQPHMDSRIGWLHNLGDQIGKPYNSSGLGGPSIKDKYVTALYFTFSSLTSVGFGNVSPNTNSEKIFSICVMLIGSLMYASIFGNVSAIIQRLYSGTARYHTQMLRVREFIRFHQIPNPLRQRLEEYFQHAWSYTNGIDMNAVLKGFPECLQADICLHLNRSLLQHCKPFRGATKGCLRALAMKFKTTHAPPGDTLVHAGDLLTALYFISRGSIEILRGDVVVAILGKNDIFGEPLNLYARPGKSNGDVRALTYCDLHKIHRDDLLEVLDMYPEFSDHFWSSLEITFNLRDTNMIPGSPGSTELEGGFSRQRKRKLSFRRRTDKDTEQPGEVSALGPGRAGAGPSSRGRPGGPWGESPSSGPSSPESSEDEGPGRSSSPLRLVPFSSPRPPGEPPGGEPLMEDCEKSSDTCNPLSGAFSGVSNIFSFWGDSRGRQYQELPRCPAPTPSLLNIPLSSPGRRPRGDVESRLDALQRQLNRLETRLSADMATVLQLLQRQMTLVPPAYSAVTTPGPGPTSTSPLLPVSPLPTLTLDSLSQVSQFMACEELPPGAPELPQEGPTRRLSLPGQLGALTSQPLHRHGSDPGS

Row | Compound | hERG current change (%, negative = inhibition) at 1uM [%]
1 | N/C(=N\OC(=O)CN1C(=O)c2ccccc2C1=O)c1ccc(Cl)cc1 | 1.96
2 | Cc1nn(Cc2n[nH]c(=S)n2Cc2ccccc2)c(C)c1Cl | 14.1
3 | Cc1ccc(-c2nnn(CC(=O)N(Cc3ccco3)C(C(=O)NC(C)(C)C)c3cccs3)n2)o1 (stereo not drawn) | -3.21
4 | Clc1ccc(CN=C(Nc2ccccc2)NC2CCCCC2)cc1 | -0.643
5 | Cc1nnc(NC(=O)CCN2C(=O)/C(=C\c3ccccc3)SC2=S)s1 | 3.43
6 | CC(=O)NS(=O)(=O)c1ccc(N2C(=O)CC(Sc3nccc(C)n3)C2=O)cc1 (stereo not drawn) | 14.7
7 | Nc1nc(SCC(=O)NCc2ccccc2)n[nH]1 | 6.33
8 | CCC(C)NC(=O)c1cccc(OCc2c(C)noc2C)c1 (stereo not drawn) | 8.77
9 | CCCCCCNc1c(C(=O)OCC)c(=O)[nH]c2ccccc12 | -0.166
10 | O=C(NCc1ccc(/C=N\NC(=O)C(=O)Nc2ccccc2Br)o1)C(=O)Nc1ccccc1 | 18.4
11 | Cc1cccc(N2C(=S)NC3c4cc(Cl)ccc4OC2(C)C3C(=O)N(C)C)c1 (stereo not drawn) | 2.3
12 | O=C1N=c2ccccc2=C1c1sc(=S)n(NC(=O)c2ccccc2)c1O | 9.06
13 | O=C(O)c1n[nH]c2c1CCCC2 | 18.8
14 | COc1ccccc1N1CCN(CC(=O)Nc2cc(F)ccc2C)CC1 | -0.831
15 | O=C(CCc1ccccc1)NC(NC(=S)Nc1cccc(Cl)c1)C(Cl)(Cl)Cl (stereo not drawn) | 13.7
16 | Cc1occc1C(=O)/C(C#N)=C/c1ccc(O)c(Br)c1 | 12.6
17 | CCOC(=O)c1cc(S(=O)(=O)NC2CCCCC2)cn1C | 10.3
18 | Cc1ccc(-c2ccc(CCC(=O)O)n2CC(=O)O)cc1 | 12.7
19 | C=CCn1c(-c2csc(-c3ccccc3)n2)n[nH]c1=S | 21.9
20 | Cn1nccc1C(=O)NC1CCCc2c1cnn2-c1ccc(C(C)(C)C)cc1 (stereo not drawn) | 19.2
21 | CN(C)/C(=N\S(=O)(=O)c1ccc(Cl)cc1)c1ccc(F)cc1 | 12.8
22 | COc1cc(S(=O)(=O)NCc2ccccc2)ccc1Br | 6.24
23 | COc1ccc(C(=O)Nc2cc(C(=O)c3ccccc3)c(C)oc2=O)cc1 | 12.9

Row | Compound | hERG current change (%, negative = inhibition) at 1uM [%]
24 | O=C(C1CCN(S(=O)(=O)c2ccc3c(c2)OCCO3)CC1)N1CCc2ccccc21 | 4.85
25 | CN(C)c1cccc(NC2=CC(=[N+]3CCOCC3)CC(C)(C)C2)c1.[I-] | -22.2
26 | CCCCn1c(N)c(N(CC(C)C)C(=O)CCS(=O)(=O)c2ccc(C)cc2)c(=O)[nH]c1=O | 5.41
27 | O=S(=O)(Nc1nc2ccccc2nc1-[n+]1cccc(N=C([O-])c2ccc(Cl)cc2)c1)c1ccccc1 | 9.3
28 | CCOC(=O)COc1ccc2nsnc2c1Cl | 12.2
29 | COC(=O)Cn1cnc2ccccc2c1=O | -10.6
30 | COc1ccc(-c2cc(Cl)cc3c(=O)c4ccccc4n(C)c23)cc1F | 17.5
31 | O=C(Nc1ccc([N+](=O)[O-])cn1)C1CC1 | 9.84
32 | CCOC(=O)c1c(NC(=O)COC(=O)c2ccc(NC(=O)CC#N)cc2)sc(C(=O)NC)c1C | 2.16
33 | O=C(c1ccc(F)cc1)C1CCN(C(=O)c2ccc(F)cc2)CC1 | 2.31
34 | Cc1ccc(NC(=O)Nc2nnc(CSCCOc3ccc(Cl)cc3)s2)cc1 | 4.92
35 | CCCC(CCC(=O)Nc1nccs1)C(=O)O (stereo not drawn) | 17.6
36 | O=C1CSc2ccc(S(=O)(=O)N3CCN(c4ccccc4)CC3)cc2N1 | 11.3
37 | CC(=O)NCCn1c(SCc2ccc(C)cc2C)nc2ccccc2c1=O | 5.66
38 | Cc1ccc2nc(-c3ccc(O)c(O)c3)cn2c1.Cl | 9.44
39 | Cl.N=c1ccccn1Cc1ccccc1 | 11.2
40 | O=C(CN(C(=O)c1csnn1)c1ccc(F)c(Cl)c1)NCc1ccccc1 | 7.54
41 | Clc1cccc(CN2CCCCC2c2cccnc2)c1 (stereo not drawn) | 5.41
42 | N#CC1(NC(=O)Cn2cc(C(F)(F)F)cc(Cl)c2=O)CCCCC1 | 12.7
43 | Cc1cc(Nc2n[nH]c(N)c2C#N)ccc1F | -20.1
44 | COc1ccccc1NS(=O)(=O)c1ccc(C(=O)NCc2ccncc2)cc1 | 0.515
45 | Cc1ccc(NC(=O)CSc2nc3ccccc3c(=O)n2Cc2cccs2)cc1 | 14.3
